Results on 43 molecules are retold here after ChEMBL document CHEMBL4888484, “Replenishing the malaria drug discovery pipeline: Screening and hit evaluation of the MMV Hit Generation Library 1 (HGL1) against asexual blood stage Plasmodium falciparum ,using a nano luciferase reporter read-out” (2022).

About 540 (0.36%) of roughly 150,000 compounds showed an effect of 50% or more. Some of the results follow.

The experiment concerns Plasmodium falciparum. The experiment can be described thus: Primary screen in NF54 nanoGlo assay, in single point, at 2uM, 72h; a lower Z score goes with more inhibition. The format is functional, Erythrocyte. To be noted: timepoint 72 hour.
As to `COc1cccc(NS(=O)(=O)c2cc3c(cc2Br)C[C@H](C)N3C(C)=O)c1`, the % Inhibition – broadly, the change of the read-out against control, counted positive when it falls – was -1% and the Z score was 0.09.

Consider `O=C(Nc1ccc2c(c1)OCO2)N1CC(n2nccn2)C1`, for which the “% Inhibition” value is recorded as 14% and the Z score is on record as -2.28.

With `O=C(Cc1cccnc1)N1CCC[C@H](Oc2cnccn2)C1`, the “% Inhibition” value is -18% and the Z score amounted to 3.14.

With `Cc1nc(C)c(C)c(N2C[C@H](CO)[C@@H](CO)C2)n1`, the “% Inhibition” value is on record as -4% and the Z score worked out at 0.86.

For `COCc1cc(-c2nc(C3(c4ccccc4)CCC3)no2)no1`, the “% Inhibition” value stood at 5% and the Z score is listed as -0.9.

Consider `CC[C@H](C)CS(=O)(=O)N(Cc1ccccn1)c1ccncc1`, for which the “% Inhibition” value is listed as -6% and the Z score is 0.91.

As to `OCc1cccc(-c2ncnc3sccc23)c1`, the “% Inhibition” value is recorded as -10% and the Z score is 2.06.

On to `O=C(CCc1cc2n(n1)CCNC2)Nc1cccc(-c2cccnc2)c1`, for which the “% Inhibition” value was -25% and the Z score came out at 2.17.

In the case of `Cc1cnn(C)c1C(=O)Nc1nc(-c2cccs2)cs1`, the “% Inhibition” value is reported as -10% and the Z score was found to be 1.86.

Turning to `COCc1nc(C)cc(NCc2cc3n(n2)CCCO3)n1`, the “% Inhibition” value is -1% and the Z score is 0.2.

`Cc1nn(C)c2nc(NCCCn3ccnc3C)sc12`: the “% Inhibition” value was -11% and the Z score was determined as 1.62.

With `CCC1=C(C(=O)N(C)C2CCOC(c3ccc(F)cc3)C2)CCCO1` (stereo unspecified), the “% Inhibition” value is -4% and the Z score came out at 0.54.

Turning to `CCc1nnnn1-c1ccccc1NC(=O)COC1CCCCC1`, the “% Inhibition” value came out at 5% and the Z score was -0.65.

For the molecule `COc1ccc2oc(C(=O)N3CCC[C@H](Oc4ccnc(C)n4)C3)cc2c1`, the “% Inhibition” value is given as 17% and the Z score is reported as -2.36.

As for `CCC1=NO[C@@H](Cn2ccc(-c3cccc(-c4ccncc4C)c3)n2)C1`, the “% Inhibition” value is 6% and the Z score is on record as -0.84.

Regarding `CNC(=O)N1CCn2c(C3CCCC3)nnc2[C@@H]1C`, the “% Inhibition” value is given as -7% and the Z score was determined as 0.96.

As for `Cc1ncsc1C(=O)NCc1nc(-c2cc[nH]c(=O)c2)no1`, the “% Inhibition” value is given as -9% and the Z score stood at 1.6.

In the case of `CN(C[C@H]1CCCCO1)C(=O)c1cccc(-c2cncn2C)c1`, the “% Inhibition” value is on record as -14% and the Z score came out at 1.3.

As to `Cn1cc(NC(=O)N2CCC(N3CCOCC3)CC2)cn1`, the “% Inhibition” value is -5% and the Z score came out at 0.62.

Turning to `CCOc1ccc(S(=O)(=O)N(C)C)cc1N`, the “% Inhibition” value is listed as -2% and the Z score was determined as 0.29.

In the case of `Cc1ncc(CN(C)C(=O)C2CC(=O)NC(C)C2)s1` (stereo unspecified), the “% Inhibition” value was -6% and the Z score is on record as 0.53.

For `Cc1nc(CN(CC(=O)O)CC(C)C)sc1C`, the “% Inhibition” value was 0% and the Z score stood at 0.02.

Take `COc1cc(F)c(CN2CCOC2=O)cc1OC`: the “% Inhibition” value is on record as -8% and the Z score is 1.5.

Consider `COc1ccc(-c2c(C)nn(CC(=O)Nc3nn(C)c4ccccc34)c2C)cc1`, for which the “% Inhibition” value is reported as -11% and the Z score is recorded as 1.54.

For the molecule `N#CC1(Cn2ccc(C(F)(F)F)n2)CCC1`, the “% Inhibition” value is 4% and the Z score is -0.42.

For `CC(C)(C)c1nsc(NCC2CCN(CC#N)CC2)n1`, the “% Inhibition” value is -8% and the Z score was 1.48.

Regarding `Cc1nc(NCc2cccc3cnccc23)n(C)n1`, the “% Inhibition” value is recorded as -14% and the Z score is on record as 2.04.

In the case of `O=C(Nc1cnccc1O)c1ccc(N2CCc3ccccc3C2)cc1`, the “% Inhibition” value was -7% and the Z score is 1.19.

As to `O=C(c1ccccc1Cl)N1CC(=O)N2CCc3ccccc3[C@@H]2C1`, the “% Inhibition” value is given as 3% and the Z score is -0.44.

On to `c1ncn(C[C@H]2COC3(CCCCC3)O2)n1`, for which the “% Inhibition” value is reported as -5% and the Z score is 0.72.

For `c1cnc(N2CCN(Cc3cnns3)CC2)nc1`, the “% Inhibition” value was -7% and the Z score was determined as 1.

As for `O=C(Nc1ccc(OC2CCC2)c(F)c1)N1CC[C@H](O)C1`, the “% Inhibition” value is on record as 35% and the Z score is reported as -0.74.

With `Cc1ccc2c(c1)N(S(=O)(=O)N1CCCC1)CCC2`, the “% Inhibition” value amounted to 5% and the Z score is given as -1.02.

As for `O=C(Cc1ccccc1Cl)N1CCc2[nH]nc(C(=O)N3CCN(c4ccc(F)cc4)CC3)c2C1`, the “% Inhibition” value was found to be 42% and the Z score is -5.61.

Regarding `COC(=O)CC1CCCN1C(=O)CC(O)COCc1ccccc1` (stereo unspecified), the “% Inhibition” value is listed as -23% and the Z score turned out to be 1.9.

For `Cc1cc(CN(C)CCCc2ccccc2Cl)n[nH]1`, the “% Inhibition” value is -4% and the Z score worked out at 0.79.

Consider `Cc1noc(C)c1CCC(=O)N(C)[C@H]1CCS(=O)(=O)C1`, for which the “% Inhibition” value is reported as -12% and the Z score is 1.31.

For the molecule `c1c(C2CC2)noc1CN[C@H]1CCOC12CCCCC2`, the “% Inhibition” value is reported as -14% and the Z score was determined as 2.34.

For the molecule `C[C@]1(c2cccnc2)NC(=O)N(Cc2cc(C#N)ccc2F)C1=O`, the “% Inhibition” value is reported as -13% and the Z score is 1.76.

On to `C[C@H](NC(=O)c1ccccc1N1CCC(NC(=O)c2ccc(Cl)cc2)CC1)c1ccccc1`, for which the “% Inhibition” value is recorded as -3% and the Z score is listed as 0.37.

Turning to `CN(CCCNC(=O)[C@@H]1CC[C@H](C(=O)O)C1)c1ccccc1`, the “% Inhibition” value was determined as 1% and the Z score was -0.16.

Take `CCCNC(=O)CNc1c(Cl)cccc1C#N`: the “% Inhibition” value was -10% and the Z score is 2.

As to `O=C(NC[C@H]1CCOC2(CCC2)C1)N1CCC=C(c2ccncc2)C1`, the “% Inhibition” value is reported as -7% and the Z score is recorded as 0.98.
